The record followed here is patent publication US20260166166A1 (CURON BIOPHARMACEUTICAL SHANGHAI, published 2026).

In experiment [1] the target is T1, L1 cell adhesion molecule (L1CAM) on the surface of HeLa cells (human, UniProt P32004 20-1257). The experiment in a line: cell-based or functional assay.
In experiment [2] the target is T1, L1 cell adhesion molecule (L1CAM) on …. The experiment in a line: flow cytometry on HeLa cells, KD from non-linear regression of MFI. On the procedure:
The anti-L1CAM ADC is diluted with complete culture medium in a 4-fold serial dilution, with 10 concentration gradient points.
HeLa cells are cultured in DMEM complete medium (Corning, 10-013-CVR) containing 10% FBS (Gibco, 10099-141) and 100 U/mL penicillin-streptomycin mixture (Thermo Fisher, 15140122). When the cell coverage in the culture container reaches 80-90%, TrypLE (Thermofisher, 12604-013) is used to digest the HeLa cells from the culture container, and they are seeded in a 96-deepwell plate at a density of 3.7×10⁴ cells/ml, with 50,000 cells (1350 μL complete medium) per well. Then, 150 μL of the ADC dilution is added to each well, mixed gently, and the 96-well plate is incubated at 4° C. for 1 hour. Then the plate is centrifuged at 1,400 rpm for 4 minutes, the supernatant is removed, and 150 μL of PBS solution (Corning, 21-040-CVC) containing 2% FBS is added to each well, centrifuged at 1,400 rpm for 4 minutes, then washed twice. Then, 50 μL of Alexa Fluor 647-labeled goat anti-human fluorescent secondary antibody (JacksonImmuno, 109-605-088) diluted at 1:800 is added to each well, and the 96-well plate is incubated at 4° C. for 0.5 hours. Cells are washed twice with PBS solution containing 2% FBS, and then resuspended in 120 μL of PBS, and the cell surface fluorescence signal is detected by using a flow cytometer (BD FACS Celesta), obtaining the median fluorescence intensity (MFI). A dose-response curve is generated, and the equilibrium dissociation constant (KD) is calculated using non-linear regression with GraphPad software.
In general terms: Flow cytometry measures light scatter and fluorescence of single cells or particles in a stream.

T1 sequence (P32004 20-1257): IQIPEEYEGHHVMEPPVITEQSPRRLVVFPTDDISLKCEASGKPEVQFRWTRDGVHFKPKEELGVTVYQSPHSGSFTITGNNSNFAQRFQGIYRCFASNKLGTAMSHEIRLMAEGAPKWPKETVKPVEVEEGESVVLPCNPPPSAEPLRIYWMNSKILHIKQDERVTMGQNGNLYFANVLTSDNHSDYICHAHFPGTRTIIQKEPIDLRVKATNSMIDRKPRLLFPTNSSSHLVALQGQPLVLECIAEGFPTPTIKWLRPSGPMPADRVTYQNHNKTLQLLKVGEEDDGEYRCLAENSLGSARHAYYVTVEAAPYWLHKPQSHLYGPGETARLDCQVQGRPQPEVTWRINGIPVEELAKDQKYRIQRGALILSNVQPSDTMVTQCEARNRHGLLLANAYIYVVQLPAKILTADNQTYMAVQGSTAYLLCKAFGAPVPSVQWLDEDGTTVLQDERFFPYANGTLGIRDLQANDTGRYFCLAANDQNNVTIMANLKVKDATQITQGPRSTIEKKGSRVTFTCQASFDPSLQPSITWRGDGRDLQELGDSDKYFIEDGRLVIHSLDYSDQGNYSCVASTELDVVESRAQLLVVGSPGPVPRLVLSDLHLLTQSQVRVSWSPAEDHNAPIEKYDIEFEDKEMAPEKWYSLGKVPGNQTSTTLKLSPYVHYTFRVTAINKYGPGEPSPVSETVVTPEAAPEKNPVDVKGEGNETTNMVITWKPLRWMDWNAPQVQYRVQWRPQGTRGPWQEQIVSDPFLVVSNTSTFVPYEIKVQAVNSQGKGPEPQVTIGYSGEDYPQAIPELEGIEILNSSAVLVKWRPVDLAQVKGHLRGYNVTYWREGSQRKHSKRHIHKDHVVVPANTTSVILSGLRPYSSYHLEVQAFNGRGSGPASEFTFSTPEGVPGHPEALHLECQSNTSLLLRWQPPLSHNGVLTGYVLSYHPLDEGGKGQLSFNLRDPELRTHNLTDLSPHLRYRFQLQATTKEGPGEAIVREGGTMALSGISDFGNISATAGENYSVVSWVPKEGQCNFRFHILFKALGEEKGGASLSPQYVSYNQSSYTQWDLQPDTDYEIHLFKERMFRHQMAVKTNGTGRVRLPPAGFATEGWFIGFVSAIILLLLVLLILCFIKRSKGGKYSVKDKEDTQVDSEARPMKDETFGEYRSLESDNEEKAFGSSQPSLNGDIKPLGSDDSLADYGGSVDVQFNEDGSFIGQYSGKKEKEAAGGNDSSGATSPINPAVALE

B1: hz26A12C1H4L3-MMAE (other)
heavy: QVQLVQSGAEVKKPGSSVKVSCKASGYTFTNYWIQWVRQAPGQGLEWIGYINPSTYYSDYNQKFQGRVTLTADKSTSTAYMELSSLRSEDTAVYYCARRQFGLPLFDYWGQGTTVTVSS[human IgG1 constant region left out here]
light: DIQMTQSPSSLSASVGDRVTITCRASQDVGTAVAWYQQKPGKVPKLLIYWASTLHSGVPSRFSGSGSGTDFTLTISSLQPEDVATYFCQQYSNYPLTFGGGTKVEIKRTVAAPSVFIFPPSDEQLKSGTASVVCLLNNFYPREAKVQWKVDNALQSGNSQESVTEQDSKDSTYSLSSTLTLSKADYEKHKVYACEVTHQGLSSPVTKSFNRGEC
modifications: mc-vc-PABC-MMAE on free thiol groups of the TCEP-reduced antibody; positions not given
notes: also called anti-L1CAM ADC; humanized anti-L1CAM antibody-drug conjugate
For the molecule B1, the “Cell killing activity of anti-L1CAM ADC (IC50 nM), HeLa, CellTiter-Glo” value (shortened to “Cell killing activity of anti-L1CAM ADC”) in experiment [1] was determined as 0.635 nM. In experiment [2], the Kd (in general, the constant that tells how readily two partners part at equilibrium) was determined as 0.23 nM.

B2: hz46F1D5H4L3-MMAE (other)
heavy: QVQLVQSGAEVKKPGSSVKVSCKASGYTFTRYWIQWVRQAPGQGLEWMGYINPSTGYTDYNQKFQGRVTITADKSTSTAYMELSSLRSEDTAVYYCARRHLGLPLFDYWGQGTTVTVSS[human IgG1 constant region left out here]
light: DIQMTQSPSSVSASVGDRVTITCRASQDVGTAVAWYQQKPGKAPKLLIYWASSLHSGVPSRFSGSGSGTDFTLTISSLQPEDFATYFCQQYSNYPLTFGGGTKVEIKRTVAAPSVFIFPPSDEQLKSGTASVVCLLNNFYPREAKVQWKVDNALQSGNSQESVTEQDSKDSTYSLSSTLTLSKADYEKHKVYACEVTHQGLSSPVTKSFNRGEC
modifications: mc-vc-PABC-MMAE on free thiol groups of the TCEP-reduced antibody; positions not given
notes: as for B1
Regarding B2, the “Cell killing activity of anti-L1CAM ADC” value in experiment [1] was found to be 0.395 nM. Binding in experiment [2] was characterised by a dissociation constant (Kd) of 0.097 nM.

B3: hz49E10H1H5L6-MMAE (other)
heavy: DVQLQESGPGLVKPSQTLSLTCTVSGGSISSDYAWNWIRQPPGKGLEWMGYITYSGTTTYNPSLKSRITISRDTSKNQFSLKLSSVTAADTAVYYCARDHYGNYAYFDYWGQGTTVTVSS[human IgG1 constant region left out here]
light: DIQMTQSPSSLSASVGDRVTITCRASSSVSFMHWYQQKPGKAPKPWIYASSNLVSGVPSRFSGSGSGTDFTLTISSLQPEDFATYYCQQWSSNPSTFGGGTKVEIKRTVAAPSVFIFPPSDEQLKSGTASVVCLLNNFYPREAKVQWKVDNALQSGNSQESVTEQDSKDSTYSLSSTLTLSKADYEKHKVYACEVTHQGLSSPVTKSFNRGEC
modifications: mc-vc-PABC-MMAE on free thiol groups of the TCEP-reduced antibody; positions not given
notes: as for B1
Take B3: the “Cell killing activity of anti-L1CAM ADC” value in experiment [1] was 0.061 nM. In addition, the Kd in experiment [2] amounted to 0.11 nM.

B4: hz103E9B3H5L5-MMAE (other)
heavy: EVQLVQSGAEVKKPGASVKVSCKASGYTFTSYTMHWVRQAPGQGLEWMGDINPNYGGTSYNEKFKDRVTMTTDTSTSTAYMELRSLRSDDTAVYYCAREGATGTWYFDVWGQGTTVTVSS[human IgG1 constant region left out here]
light: DIQMTQSPSSLSASVGDRVTITCSASSSVSFMFWYQQKPGKAPKPLIYLTSNLASGVPSRFSGSGSGTDFTLTISSLQPEDFATYYCQQWRSNPPTFGGGTKVEIKRTVAAPSVFIFPPSDEQLKSGTASVVCLLNNFYPREAKVQWKVDNALQSGNSQESVTEQDSKDSTYSLSSTLTLSKADYEKHKVYACEVTHQGLSSPVTKSFNRGEC
modifications: mc-vc-PABC-MMAE on free thiol groups of the TCEP-reduced antibody; positions not given
notes: as for B1
For the molecule B4, in experiment [1], the “Cell killing activity of anti-L1CAM ADC” value was 0.32 nM. The Kd in experiment [2] turned out to be 0.66 nM.

B5: hz49E10H1H5L7-MMAE (other)
heavy: DVQLQESGPGLVKPSQTLSLTCTVSGGSISSDYAWNWIRQPPGKGLEWMGYITYSGTTTYNPSLKSRITISRDTSKNQFSLKLSSVTAADTAVYYCARDHYGNYAYFDYWGQGTTVTVSS[human IgG1 constant region left out here]
light: QIQMTQSPSSLSASVGDRVTITCRASSSVSFMHWYQQKPGKAPKPWIYASSNLVSGVPSRFSGSGSGTDYTLTISSLQPEDFATYYCQQWSSNPSTFGGGTKVEIKRTVAAPSVFIFPPSDEQLKSGTASVVCLLNNFYPREAKVQWKVDNALQSGNSQESVTEQDSKDSTYSLSSTLTLSKADYEKHKVYACEVTHQGLSSPVTKSFNRGEC
modifications: mc-vc-PABC-MMAE on free thiol groups of the TCEP-reduced antibody; positions not given
notes: as for B1
For the molecule B5, the “Cell killing activity of anti-L1CAM ADC” value in experiment [1] amounted to 0.092 nM. Besides, the Kd in experiment [2] stood at 0.084 nM.

B6: hz103E9B3H6L5-MMAE (other)
heavy: EVQLVQSGAEVKKPGASVKVSCKASGYTFTSYTMHWVRQAPGQGLEWMGDINPNYGGTSYNEKFKDRATMTTDTSTSTAYMELRSLRSDDTAVYYCAREGATGTWYFDVWGQGTTVTVSS[human IgG1 constant region left out here]
light: DIQMTQSPSSLSASVGDRVTITCSASSSVSFMFWYQQKPGKAPKPLIYLTSNLASGVPSRFSGSGSGTDFTLTISSLQPEDFATYYCQQWRSNPPTFGGGTKVEIKRTVAAPSVFIFPPSDEQLKSGTASVVCLLNNFYPREAKVQWKVDNALQSGNSQESVTEQDSKDSTYSLSSTLTLSKADYEKHKVYACEVTHQGLSSPVTKSFNRGEC
modifications: mc-vc-PABC-MMAE on free thiol groups of the TCEP-reduced antibody; positions not given
notes: as for B1
For B6, the “Cell killing activity of anti-L1CAM ADC” value in experiment [1] is 0.155 nM. The molecule further had a Kd in experiment [2] of 0.6 nM.
